This is an account of results in article PMC11995724, “Antibiotic target discovery by integrated phenotypic and activity-based profiling of electrophilic fragments” (Cell chemical biology, 2025).

Molecules are shown by their SMILES. Screen size: about 3,200 compounds; about 75 (2%) showed an effect of 50% or more. Some of the results follow.

The assay has as its system T1, S. aureus MSSA476.
T1 construct: MSSA476
Also noted: species or system S. aureus MSSA476 (TSB) or V. cholerae SAD30 (LB); 384-well bacterial growth screen at 25 uM, OD600 relative to DMSO control. Particulars: relative growth, OD600, TSB; 25 µM; inhibitor.
On to `CCC(=O)Nc1cccc(NC(=O)CCl)c1C` [5-K04, N-[3-(2-chloroacetamido)-2-methylphenyl]propanamide], for which the “% of control remaining” value is 101.275%. With `C=CC(=O)Nc1cnn(CCF)c1` [1-E05, N-[1-(2-fluoroethyl)-1H-pyrazol-4-yl]prop-2-enamide] the figure was 103.385%. Turning to `C=CC(=O)N1CCN(c2nccn(C)c2=O)CC1` [3-P20, 1-methyl-3-[4-(prop-2-enoyl)piperazin-1-yl]-1,2-dihydropyrazin-2-one], the “% of control remaining” value came out at 100.653%. With `C=CC(=O)Nc1ccc(C(=O)N2CCC(S(=O)(=O)NC)C2)cc1` (centres unmarked) [3-O08, N-{4-[3-(methylsulfamoyl)pyrrolidine-1-carbonyl]phenyl}prop-2-enamide] the figure was 86.7218%; with `C=CC(=O)N1CCOC2(CCCCCC2)C1` [1-L08, 1-{1-oxa-4-azaspiro[5.6]dodecan-4-yl}prop-2-en-1-one], 128.703%. With `CC(Cl)C(=O)Nc1ccccc1[N+](=O)[O-]` (centres unmarked) [4-G18, 2-chloro-N-(2-nitrophenyl)propanamide] the figure was 124.631%. Regarding `N#CC(=Cc1cccc(Cl)c1Cl)C(=O)NCc1ccco1` [8-P04, 2-cyano-3-(2,3-dichlorophenyl)-N-[(furan-2-yl)methyl]prop-2-enamide], the “% of control remaining” value turned out to be 92.6141%.

As for `CCN(C(=O)C(C)Cl)c1ccccc1` (centres unmarked) [4-P16, 2-chloro-N-ethyl-N-phenylpropanamide], the “% of control remaining” value is given as 96.0457%. The figure for `CN(C)S(=O)(=O)c1ccc(NC(=O)CCl)cc1` [5-J11, 2-chloro-N-[4-(dimethylsulfamoyl)phenyl]acetamide] is 107.468%; for `N#CC(=Cc1cccc(O)c1)C(=O)Nc1ccc(N2CCOCC2)cc1` [8-I14, 2-cyano-3-(3-hydroxyphenyl)-N-[4-(morpholin-4-yl)phenyl]prop-2-enamide] it is 91.9502%. The figure for `CC(C)C(NC(=O)CCl)c1ccc2c(c1)OCCCO2` (centres unmarked) [4-N14, 2-chloro-N-[1-(3,4-dihydro-2H-1,5-benzodioxepin-7-yl)-2-methylpropyl]acetamide] is 90.7099%. Regarding `C=CC(=O)NCC1CCN(Cc2ccccc2)CC1C` (centres unmarked) [3-G20, N-[(1-benzyl-3-methylpiperidin-4-yl)methyl]prop-2-enamide], the “% of control remaining” value is reported as 87.0701%. With `C=CC(=O)N(C)CC(=O)N1CCC(CN2CCCCC2=O)CC1` [2-F16, N-methyl-N-(2-oxo-2-{4-[(2-oxopiperidin-1-yl)methyl]piperidin-1-yl}ethyl)prop-2-enamide] the figure was 94.3429%; with `O=C1C=CC(=O)N1CCc1ccc(F)cc1` [10-C21, 1-[2-(4-fluorophenyl)ethyl]-2,5-dihydro-1H-pyrrole-2,5-dione], 70.9375%. The figure for `CC(Cl)C(=O)N1CCc2c(nnn2C)C1` (centres unmarked) [7-G22, 2-chloro-1-{1-methyl-1H,4H,5H,6H,7H-[1,2,3]triazolo[4,5-c]pyridin-5-yl}propan-1-one] is 75.9812%; for `O=C(CCl)Nc1ccc(Cl)cc1F` [4-E03, 2-chloro-N-(4-chloro-2-fluorophenyl)acetamide] it is 75.0834%; for `O=C(CCl)N1CCC(C2CCCN(C(=O)C(F)(F)F)C2)CC1` (centres unmarked) [5-E20, 1-[1'-(2-chloroacetyl)-[3,4'-bipiperidin]-1-yl]-2,2,2-trifluoroethan-1-one] it is 105.647%. With `CSc1ccc(C=C(C#N)C(=O)Nc2cccc(Cl)c2C)cc1` [8-N11, N-(3-chloro-2-methylphenyl)-2-cyano-3-[4-(methylsulfanyl)phenyl]prop-2-enamide] the figure was 130.788%; with `CC1CC(C)CN(S(=O)(=O)c2ccc(NC(=O)CCl)cc2)C1` (centres unmarked) [4-K16, 2-chloro-N-{4-[(3,5-dimethylpiperidin-1-yl)sulfonyl]phenyl}acetamide], 97.9514%. Regarding `CC(c1ccc(C(F)(F)F)c(Cl)c1)N(C)C(=O)CCl` (centres unmarked) [7-F14, 2-chloro-N-{1-[3-chloro-4-(trifluoromethyl)phenyl]ethyl}-N-methylacetamide], the “% of control remaining” value came out at 6.593%.

As to `O=C(CCl)N(Cc1ccccc1)Cc1ccco1` [5-F22, N-benzyl-2-chloro-N-[(furan-2-yl)methyl]acetamide], the “% of control remaining” value came out at 112.204%. With `C=CC(=O)N(Cc1cn(C)nc1CC)C1CCCCCC1` [1-H09, N-cycloheptyl-N-[(3-ethyl-1-methyl-1H-pyrazol-4-yl)methyl]prop-2-enamide] the figure was 108.659%; with `C=CC(=O)NC1CC(C)Cc2cc(OC)ccc21` (centres unmarked) [3-L17, N-(6-methoxy-3-methyl-1,2,3,4-tetrahydronaphthalen-1-yl)prop-2-enamide], 79.4079%; with `CN(C(=O)c1ccccc1)C1CC2CCC(C1)N2C(=O)CCl` (centres unmarked) [5-J03, N-[8-(2-chloroacetyl)-8-azabicyclo[3.2.1]octan-3-yl]-N-methylbenzamide], 104.189%.

Regarding `N#CC(C(=O)CCl)c1nncn1-c1ccccc1` (centres unmarked) [10-L14, 4-chloro-3-oxo-2-(4-phenyl-4H-1,2,4-triazol-3-yl)butanenitrile], the “% of control remaining” value is given as 116.25%.

Turning to `CC(C)C(=O)Nc1ccc(C(=O)CCl)cc1` [10-D04, N-[4-(2-chloroacetyl)phenyl]-2-methylpropanamide], the “% of control remaining” value amounted to 4.6875%. The figure for `C=CC(=O)NC1(C(N)=O)Cc2ccccc2C1` [2-D15, 2-(prop-2-enamido)-2,3-dihydro-1H-indene-2-carboxamide] is 107.224%; for `C=CC(=O)N1CCC(C(=O)N(C)Cc2ccon2)CC1` [2-I14, N-methyl-N-[(1,2-oxazol-3-yl)methyl]-1-(prop-2-enoyl)piperidine-4-carboxamide] it is 113.142%; for `C=CCNC(=O)C(C#N)=Cc1ccccc1OC` [9-H05, 2-cyano-3-(2-methoxyphenyl)-N-(prop-2-en-1-yl)prop-2-enamide] it is 96.1798%.
